PubChem BioAssay AID493208 (National Center for Advancing Translational Sciences (NCATS), 2011)
Hit rate of the full screen: of about 44,000 compounds, about 340 (0.77%) were called active. Another 5% or so got no clear call; they are omitted. The call rests on the fitted dose curve; in most records, active means well fitted inhibition curve with a large enough effect; inconclusive means small, poorly fitted or top-dose-only effect; inactive means flat fitted curve, though single readings scatter. Some of the results follow.

Assay: Acumen qHTS Assay for Inhibitors of the mTORC1 Signaling Pathway in MEF (Tsc2-/-, p53-/-) Cells: Sytravon;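 further: plate controls were DMSO for no effect and rapamycin for full effect; nearly all actives have a fitted effect of over 50% in size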
Conditions: phospho-rpS6 immunofluorescence/PI, 24 h; series mostly up to 38.3 µM; activity change, negative = inhibition: at the top concentration
Procedure, shortened: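 Cell-based qHTS: Tsc2-/- p53-/- MEF, 24 h cpd, 37 °C; fix/perm, anti-phospho-S6 Alexa-488 + PI; Acumen 488 nm scan; pS6/PI ratio, % positive cells; rapamycin 7.5 nM = inhibition ref; PI count = viability.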

Activity change, negative = inhibition, inactive:
COc1ccccc1CNC(=O)CCCCn1c(=O)c2ccccc2n(Cc2c(C)cc(C)cc2C)c1=O -14.2%
COc1ccc(CNC(=O)Cn2c(=O)oc3cc(S(=O)(=O)N4CCCCCC4)ccc32)cc1 -0.479%
COc1ccc(N2CCN(C(=O)CCc3c(C)nc4c(-c5ccccc5)c(C)nn4c3C)CC2)cc1 0.724%
COc1ccc(CCNC(=O)c2ccc3c(c2)N(Cc2ccc(C)cc2)CCS3)cc1OC -13%
CC1=C(C(N)=O)C(c2ccc(C(C)C)cc2)n2nc(SCc3ccccc3)nc2N1 (stereo not drawn) -11.6%
Cc1cc(N2CCN(C)CC2)nc2ccc(NC(=O)Nc3ccccc3Br)cc12 5.06%
CCOc1ccc(S(=O)(=O)N(CC(=O)Nc2cccnc2)c2ccccc2)cc1 -21.1%
Cc1cc(C)n2nc(SCC(=O)Nc3cc(Cl)ccc3C)nc2n1 1.95%
CCOC(=O)c1cccc(NC(=O)CC(c2cc(OC)c(OC)c(OC)c2)N2Cc3ccccc3C2=O)c1 (stereo not drawn) 0%
CCn1c(=NC(=O)c2ccc(S(=O)(=O)N3CCCCC3)cc2)sc2cccc(OC)c21 -1.66%
CCc1nn2c(-c3ccccc3OC)ccnc2c1-c1ccc(F)cc1 -0.134%
COC(=O)c1ccc(NC(=O)CCc2c(C)nc3c(c(C)nn3-c3ccc(C)cc3)c2C)cc1 -11.1%
Oc1c(C(c2ccccc2F)N2CCOCC2)sc2nc(-c3ccco3)nn12 (stereo not drawn) -0.994%
CCOC(=O)C1CCN(c2c(C(=O)c3ccc(OCC)cc3)cnc3ccc(OC)cc23)CC1 6.38%
Cc1cccc(NC(=O)c2oc3c(c2C)-c2[nH]ncc2CC3)c1C -13.5%
CCN(c1ccccc1)S(=O)(=O)c1ccc2[nH]cc(C(=O)NC3CCCCC3)c(=O)c2c1 -0.517%
Cc1nc2c(C(=O)NCc3ccccc3Cl)c[nH]n2c(=O)c1Cc1cccc(Cl)c1 0.953%
CC(NC(=O)CSc1n[nH]c(-c2ccccc2Cl)n1)c1nc2ccccc2n1C (stereo not drawn) 0%
Cc1c(Cl)cccc1NC(=O)CC(c1cccs1)N1Cc2ccccc2C1=O (stereo not drawn) -5.77%
CCOc1ccc(NC(=O)CN2CCN(Cc3ccccc3)S2(=O)=O)cc1 0%
COc1c(C)cc(S(=O)(=O)Nc2cccc(-c3ccc(N4CCOCC4)nn3)c2)c(C)c1C 4.89%
CCCCN(C)CCCNC(=O)CN1C(=O)COc2ccc(S(=O)(=O)N3CCC(C)CC3)cc21 -2.06%
CCOC(=O)N1CCc2c(sc(NCc3sccc3C)c2C(=O)Nc2cc(OC)ccc2OC)C1 -5.15%
Cc1cc(=O)[nH]c2nnc(SCc3ccc(Cl)c(Cl)c3)n12 -0.681%
COc1cccc(NC(=O)CSc2cc(=O)n(C)c3ccc(Cl)cc23)c1 -2.67%
CCCCNC(=O)C1CCN(C(=O)N2CC(C)Oc3ccc(Cl)cc32)CC1 (stereo not drawn) 3.28%
CCOc1ccccc1-n1c(C)nc2cc(C(=O)O)ccc21 0.873%
Cc1cccc(C(=O)N2CCc3cc(CNC(=O)c4ccnn4C)ccc32)c1 -8.59%
CCOc1ccccc1NC(=O)CN1C(=O)COc2ccc(S(=O)(=O)N3CCCCCC3)cc21 -0.983%
COc1ccc(NC(=O)c2c(C(=O)Nc3ccccc3)sc3nc(C)cc(=O)n23)cc1 1.83%
CCOc1ccccc1NC(=O)Cc1coc2c(C)c(C)ccc12 -9.43%
N#C/C(=C\c1ccc(F)cc1)C(=O)NCC1CCCO1 (stereo not drawn) -5.1%
Cc1ccc(CCNC(=O)C(CC(C)C)NS(=O)(=O)c2ccc3c(c2)oc(=O)n3C)cc1 (stereo not drawn) 0.766%
O=C(CCCn1c(=O)[nH]c2ccccc2c1=O)NCc1ccccc1Cl -0.289%
CCc1nn(CC(=O)NCCCOC)c(=O)c2cc3occc3n12 -11.1%
COc1cccc(NC(=O)CSc2nc3ccc(NC(=O)c4ccco4)cc3s2)c1 -10.9%
CCCN(CCC)CCCNC(=O)Cn1cnc2onc(-c3ccc(F)cc3)c2c1=O -1.6%
O=C(Cn1cnc2c(nc3n2CCCCC3)c1=O)Nc1ccc(F)cc1 -4.91%
Cc1ccc(-c2nnc(Nc3ccc(Br)cc3)c3ccccc23)cc1S(=O)(=O)N1CCCCC1 16.8%
COC(=O)C(C)Sc1nnc2cc(C)c3cc(C)cc(C)c3n12 (stereo not drawn) 0.52%
COc1cc(-c2cc(OC)c3c(C)oc(C)c3c(=O)c2)ccc1OC(=O)c1ccccc1C -8.81%
O=C(CN1C(=O)C(c2ccc(F)cc2)=NC12CCCCCC2)Nc1ccc(F)c(Cl)c1 -7.8%
CCC(=O)NC1CC(=O)N(c2ccc3c(c2)OCCO3)C1 (stereo not drawn) 1.49%
Cc1ccc2c(=O)cc(C(=O)Nc3c(C)n(C)n(-c4ccccc4)c3=O)oc2c1C 2.08%
COc1ccccc1NC(=O)Cn1c(=O)n(Cc2ccco2)c(=O)c2oc3ccccc3c21 -5.68%
Cc1cc(C)c2c(-n3cccc3)c(C(=O)NCCc3ccc(Cl)cc3)sc2n1 -5.53%
CN(C(=O)c1nc(-c2cccc(F)c2)n2c1CCCCC2)c1ccccc1F -7.65%
CCCOc1ccc(NC(=O)CC2C(=O)N(c3ccccc3)C(=O)N2CCC(C)C)cc1 (stereo not drawn) -1.81%
